Laboratory results taken from PMC4336329 (PLoS ONE, 2015).
The whole screen tested about 310,000 compounds, of which about 2,200 (0.71%) showed an effect of 50% or more. Effects have a minus sign here. Some of the results follow.

molecular target: human ether-à-go-go-related gene (hERG) potassium channel (human, UniProt Q12809); test: primary screen, population patch clamp on CHO cells stably expressing hERG
Sequence (Q12809 whole entry, looked up): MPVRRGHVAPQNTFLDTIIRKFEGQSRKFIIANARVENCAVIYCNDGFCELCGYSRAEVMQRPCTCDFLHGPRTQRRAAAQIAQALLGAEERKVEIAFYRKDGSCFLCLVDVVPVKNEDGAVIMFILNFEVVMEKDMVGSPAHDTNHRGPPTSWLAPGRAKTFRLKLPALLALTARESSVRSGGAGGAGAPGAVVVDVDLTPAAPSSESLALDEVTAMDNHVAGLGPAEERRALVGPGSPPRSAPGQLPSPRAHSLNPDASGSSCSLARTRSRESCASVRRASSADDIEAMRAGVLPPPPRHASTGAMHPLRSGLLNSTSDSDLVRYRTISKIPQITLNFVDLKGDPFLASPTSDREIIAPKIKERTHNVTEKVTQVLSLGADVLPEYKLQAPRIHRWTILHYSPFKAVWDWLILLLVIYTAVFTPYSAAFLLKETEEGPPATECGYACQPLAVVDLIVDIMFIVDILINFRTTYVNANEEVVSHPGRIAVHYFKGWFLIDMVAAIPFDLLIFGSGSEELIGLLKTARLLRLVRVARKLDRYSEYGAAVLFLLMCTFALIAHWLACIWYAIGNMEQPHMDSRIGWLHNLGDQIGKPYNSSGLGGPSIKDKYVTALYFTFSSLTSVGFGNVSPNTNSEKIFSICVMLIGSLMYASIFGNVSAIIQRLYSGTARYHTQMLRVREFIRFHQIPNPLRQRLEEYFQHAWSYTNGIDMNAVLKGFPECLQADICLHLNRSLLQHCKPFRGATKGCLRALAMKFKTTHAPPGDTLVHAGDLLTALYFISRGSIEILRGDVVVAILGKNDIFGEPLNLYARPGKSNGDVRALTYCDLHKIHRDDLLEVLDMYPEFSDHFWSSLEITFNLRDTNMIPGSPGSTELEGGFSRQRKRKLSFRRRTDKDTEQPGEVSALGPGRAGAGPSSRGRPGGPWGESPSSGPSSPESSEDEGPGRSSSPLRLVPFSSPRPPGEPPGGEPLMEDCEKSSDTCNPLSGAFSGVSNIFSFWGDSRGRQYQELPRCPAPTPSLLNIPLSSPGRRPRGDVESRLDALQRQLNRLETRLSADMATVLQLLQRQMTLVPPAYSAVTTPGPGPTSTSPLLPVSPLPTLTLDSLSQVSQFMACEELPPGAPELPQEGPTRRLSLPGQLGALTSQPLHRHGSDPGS

Structure (SMILES) | hERG current change (%, negative = inhibition) at 1uM [%]
CC(=O)c1c(C)[nH]c(C(=O)NCCCN2CCCC2)c1C | 6.58
COc1ccc(Cn2nnnc2C(c2cc3cc(C)cc(C)c3[nH]c2=O)N2CCOCC2)cc1 (stereo not shown) | -9.84
C=CCN(CC=C)C(=O)c1cccc(S(=O)(=O)N2c3ccccc3CC2C)c1 (stereo not shown) | 9.6
Cc1noc(C)c1CSCC(=O)Nc1nnc(CC(C)C)s1 | -9.51
Cc1ccc(S(=O)(=O)N2CCOC2CNC(=O)C(=O)NCc2ccc3c(c2)OCO3)cc1 (stereo not shown) | 9.31
COc1ccc(C(=O)NC(=S)Nc2nnn(C)n2)cc1 | 7.5
Cc1ccc(OCC(=O)c2c(N)n(C)c(=O)n(C)c2=O)c([N+](=O)[O-])n1 | 8.75
Cc1c(NC(C)c2cc(Cl)ccc2O)c(=O)n(-c2ccccc2)n1C (stereo not shown) | -7.33
COc1cc(N=Nc2ccccc2C(=O)O)ccc1O | 9.77
Cc1cc(C)cc(NC(=S)NC(=O)C2CC2)c1 | 11.7
COc1ccccc1NC(=O)N1CCCC1C(=O)Nc1ccc(NC(C)=O)cc1 (stereo not shown) | 7.78
CCOC(=O)c1c(C)[nH]c(C(=O)COC(=O)/C=C/c2ccc(OCC#N)c(OC)c2)c1C | 8.37
COCCCC1CCN(C(=O)C2CCC(=O)N(CCc3cccc(F)c3)C2)CC1 (stereo not shown) | 8.4
COc1ccccc1-c1nnc(SCC(=O)NCc2c(C)c(Cl)cc(C(C)C)c2O)o1 | 9.09
O=C1CC(=O)C(n2cncn2)C(c2c(F)cccc2Cl)C1 (stereo not shown) | 4.89
CSc1nc(N(C)NC(=O)c2ccc(F)cc2)c2ccccc2n1 | 10.5
CCc1cc2c(=O)nc3n(c2s1)Cc1ccccc1/C3=C(/O)c1cccc([N+](=O)[O-])c1 | 7.54
CC(=O)Nc1ccc(S(=O)(=O)NCCC(=O)Nc2cccc(Cl)c2)cc1 | 12.5
O=C(NC1CCCC1)c1cccc2c1C(=O)c1ccc(N3CCCCC3)cc1S2(=O)=O | 8.97
Cc1ccc(SCC(=O)OCC(=O)NC(C)c2ccc(Br)cc2)cc1 (stereo not shown) | 2.96
CCC(=O)N(CCc1ccccc1)Cc1cc2cccc(C)c2[nH]c1=O | 9.09
CCN(CC)c1ccc(/C=N\NC(=O)c2cccc3cc[nH]c23)cc1 | 14.4

Structure (SMILES) | hERG current change (%, negative = inhibition) at 1uM [%]
C[C@]12CS(=O)(=O)C[C@H]1SC(=S)N2c1ccccc1 | 11.8
COc1ccc(NC(=O)c2cccc(S(=O)(=O)N3CCN(c4ccccc4)CC3)c2)c(OC)c1 | 3.11
Cc1cccc(C)c1OCC(=O)NNC(=O)CNC(=O)c1ccc(OC(F)F)cc1 | 1.85
CCCN(C(=O)c1ccc(N(C)S(=O)(=O)c2ccc(C)cc2)cc1)C1CCS(=O)(=O)C1 (stereo not shown) | 14.8
Cc1csc(NC(=O)CSCC(=O)Nc2ccccc2)n1 | 9.76
CCOC(=O)c1ccc([N+](=O)[O-])c(CS(=O)(=O)c2ccc(Cl)cc2)c1 | -0.371
Nc1nc2nonc2nc1N1CCCCC1 | 3.91
CCOc1ccc(C2NC(=O)c3ccccc3O2)cc1 (stereo not shown) | 11.5
Cc1ccc(-n2nnnc2SCC(=O)c2ccc3c(c2)NC(=O)CO3)c(C)c1 | 12.6
CCOc1ccccc1CNC(=O)CNC(=O)c1cccs1 | 9.63
CCN1C(=O)C(CC(=O)NCc2ccc(Cl)cc2)N(CC)C1=O (stereo not shown) | 4.86
CN1CCc2c(sc(/N=C/c3c[nH]c4ccccc34)c2C(N)=O)C1 | 5.96
CN1C(C(=O)Nc2ccccn2)=C(O)c2sc(Cl)cc2S1(=O)=O | 14.2
Cc1cccc(NC(=O)c2cccc(Cn3cc(Br)c([N+](=O)[O-])n3)c2)c1C | 8.71
COc1ccc(OCc2cc(C(=O)NC(C)c3csc(C)n3)no2)c(Cl)c1 (stereo not shown) | 33.4
Cc1ccc(CNC(=O)c2ccc(N3CCC4(CC3)CC(c3ccccc3)=NO4)c(NC(=O)c3ccc(Cl)c([N+](=O)[O-])c3)c2)cc1 | 3.96
Cc1cc2c(cc1C)CSC(c1ccccc1OC(=O)C(C)(C)C)SC2 | 2.68
COc1ccccc1C(=O)NNC(=S)NC(=O)c1sc2ccccc2c1Cl | 14.3
CCCOc1ccc(C(=O)c2ccccc2C(=O)OC2CCOC2=O)cc1OCCC (stereo not shown) | 1.85
O=C(N/N=C/c1ccccc1OC(=O)c1ccc2c(c1)OCO2)c1ccccc1 | 14
Cc1nc(SCC(=O)NCc2ccccc2)c2c(=O)n(C)c(=O)n(C)c2n1 | -3.52
COc1ccc(-c2noc(-c3ccc4c(c3)OCO4)n2)cc1 | 4.11

Structure (SMILES) | hERG current change (%, negative = inhibition) at 1uM [%]
O=C(NC1CCCCC1)c1cc([N+](=O)[O-])ccc1N1CCCCC1 | -6.83
COc1ccc(S(=O)(=O)N2CCN(Cc3cc(OC)c(OC)cc3OC)CC2)cc1.O=C(O)C(=O)O | 3.15
CC(OC(=O)c1ccc2ncsc2c1)C(=O)NC1CCCCC1C (stereo not shown) | 11.2
C/C(=C/c1ccccc1)C(=O)N1CC(C)OC(C)C1 (stereo not shown) | 8.36
N#CC1=C(N)Oc2c(oc(CO)cc2=O)C1c1cccs1 (stereo not shown) | 14.5
COc1ccc(C2C(C(=O)NCc3ccccc3)=C(C)Nc3ncnn32)cc1OC (stereo not shown) | 13.9
O=C1c2cccc3cccc(c23)C(=O)N1CCc1ccccc1 | 11.5
Cc1cc(C)n2nc(SCc3ncc(-c4ccccc4)o3)nc2n1 | 3.72
Brc1ccc(Oc2nsnc2N2CCOCC2)cc1 | -4.39
CCNc1nc(NC(C)C)nc(NC(C)(C)C)n1 | 2.4
C=C1CCC[C@]2(C)C[C@H]3OC(=O)C(CNC(C)CCCC(C)C)[C@H]3CC12 (stereo partly shown) | 9.74
O=C(Nc1c[nH]c(=O)[nH]c1=O)c1ccccc1Br | 15
Cc1ccc(NC(=O)COCC(=O)Nc2ccc(F)cc2)cc1 | 11.3
C=CCOc1ccc(CNn2cn[nH]c2=S)cc1OC | 7.1
Nc1nonc1-n1nnc(C(=O)N/N=C/c2ccc(O)cc2)c1CN1CCCCCC1 | 12.3
CC(C)(C)Nc1nc(NN)nc(NC(C)(C)C)n1 | 16.9
O=C1CCCN1Cc1ccccc1 | 15.7
COc1ccccc1CNS(=O)(=O)c1cc2c3c(c1)CCN3C(=O)CC2 | 5.58
CC(=O)Nc1ccc(N=NC2C(=O)N(C(N)=S)N=C2C)cc1 (stereo not shown) | 9.74
O=C(c1ccccc1NS(=O)(=O)c1cccc([N+](=O)[O-])c1)N1CCCC1 | 7.15
CCCN(C(=O)c1ccc([N+](=O)[O-])c(C)c1)c1c(N)n(Cc2ccccc2)c(=O)[nH]c1=O | 1.67
O=C(Cc1ccc(-c2ccccc2)cc1)Nc1ccccc1 | 16

Structure (SMILES) | hERG current change (%, negative = inhibition) at 1uM [%]
CCn1c(=O)n(CC)c2cc(N3CCCC3)c(NC(=O)c3ccc(OC)c(Br)c3)cc21 | 17.5
Cc1[nH]cnc1CSCc1ccc(F)cc1.Cl | -1.44
Cc1sc2nc(CSCC(=O)NC3CCCCC3)[nH]c(=O)c2c1C | 2.64
CCCCN1C(N)=NC[C@@H]1c1ccccc1 | 7.96
CCCCn1c(N)c(N(CC)C(=O)C2CCCC2)c(=O)[nH]c1=O | 5.09
O=C(Oc1ccccc1)N1CCOCC1 | 18.9
O=C(COC(=O)c1ccc(O)cc1)NCc1ccc2c(c1)OCO2 | 5.5
CCCn1c(=O)c2ccccc2n2c(SCc3nc4ccccc4s3)nnc12 | 6.05
CCCNC(=O)C(Cc1ccccc1)NC(=O)Cc1ccccc1 (stereo not shown) | 15.3
O=C1C=C(c2cc(F)ccc2F)C[C@@H](c2ccc(Cl)cc2)C1 | 9.97
COc1ccccc1C(=O)Nc1cc(Cl)ccc1-n1cncn1 | 8.54
O=S(=O)(c1cccc2nsnc12)N1CCCCC1 | -1.05
CC(C)Cc1cc(C(=O)N2CCCC(CCC(=O)N(C)CCc3ccccn3)C2)no1 (stereo not shown) | 7.62
O=C(O)CCN1C(=O)c2ccc(Oc3ccc([N+](=O)[O-])cc3)cc2C1=O | 14.2
O=C(O)C1CCC(=O)N1C(=O)OCc1ccccc1 (stereo not shown) | 11.7
Cc1ccc(Cn2ncc3c(N4CCN(Cc5ccc(Cl)cc5)CC4)ncnc32)cc1 | 0.667
CCOC(=O)N1CCN(c2ncnc3c2oc2nc(C(C)C)c4c(c23)CCC4)CC1 | 6.16
Cc1ccc2cc(CCNS(=O)(=O)c3ccc(Br)cc3)c(=O)[nH]c2c1C | 4.24
CCN(CC(=O)Nc1cc(C)on1)CC(=O)Nc1ccccc1C(F)(F)F | 9.71
O=C(CN1C(=O)CSc2ccc(S(=O)(=O)N3CCOCC3)cc21)NCCCN1CCc2ccccc2C1 | 2.43
O=C(Cc1ccc(-c2ccccc2)cc1)NC1CCCC1 | 9.27
Cc1cccc(NC(=O)CN(c2ccc(F)cc2)S(C)(=O)=O)c1 | 4.91
